# According to the supplement of paper PMC4604168 (melanoma cell lines):
# The list shows a part of the results. Most values come without repeats; read them as rough.
# How the values were obtained:
# Test in all cases: cell count relative to DMSO control; melanoma cells; higher = more viable cells
# Settings in all cases: library dose: low library concentration; 72 h
# MZ2-MEL = test system: MZ2-MEL
# MeWo = test system: MeWo
# RPMI7951 = test system: RPMI7951
# RVH-421 = test system: RVH-421
# SkMel28 = test system: SkMel28
# SkMel30 = test system: SkMel30
# SkMel5 = test system: SkMel5
# UACC257 = test system: UACC257
# UACC62 = test system: UACC62
# WM115 = test system: WM115
# WM1716 = test system: WM1716
# WM1745 = test system: WM1745
# WM3526 = test system: WM3526
# WM3619 = test system: WM3619
# WM451Lu = test system: WM451Lu
# SkMel2 = test system: SkMel2
# 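Also: cell number obtained by counting DAPI-stained nuclei in high-throughput microscope images with image analysis software, screen run in 1,536-well plates.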
Structure (SMILES),cell count (MZ2-MEL) [%],cell count (MeWo) [%],cell count (RPMI7951) [%],cell count (RVH-421) [%],cell count (SkMel28) [%],cell count (SkMel30) [%],cell count (SkMel5) [%],cell count (UACC257) [%],cell count (UACC62) [%],cell count (WM115) [%],cell count (WM1716) [%],cell count (WM1745) [%],cell count (WM3526) [%],cell count (WM3619) [%],cell count (WM451Lu) [%],cell count (SkMel2) [%]
"CO[C@H]1C[C@@H]2CC[C@@H](C)[C@@](O)(O2)C(=O)C(=O)N2CCCC[C@H]2C(=O)O[C@H]([C@H](C)C[C@@H]2CC[C@@H](OCCO)[C@H](OC)C2)CC(=O)[C@H](C)/C=C(\C)[C@@H](O)[C@@H](OC)C(=O)[C@H](C)C[C@H](C)/C=C/C=C/C=C/1C [everolimus] + NC(=O)Nc1cc(-c2cccc(F)c2)sc1C(=O)N[C@H]1CCCNC1 [AZD7762] (first compound 0.02 µM, partner dose 0.02 µM)",82.1,79.4,72.4,115,68.4,71.7,121,83,90.5,82.1,76.5,69,53.3,44.6,65.4,
"CC(=O)O[C@@]12CO[C@@H]1C[C@H](O)[C@@]1(C)C(=O)[C@H](O)C3=C(C)[C@@H](OC(=O)[C@H](O)[C@@H](NC(=O)OC(C)(C)C)c4ccccc4)C[C@@](O)([C@@H](OC(=O)c4ccccc4)[C@H]21)C3(C)C [Docetaxel] + COCC[n+]1c2c(n(Cc3cnccn3)c1C)C(=O)c1ccccc1C2=O [YM155] (first compound 0.0001 µM, partner dose 0.0004 µM)",33.7,41.1,37.5,64.9,32.5,33,,,45.7,62.6,41,49.3,57.6,70.4,47.1,35.2
"CC(=O)c1c(C)c2cnc(Nc3ccc(N4CCNCC4)cn3)nc2n(C2CCCC2)c1=O [palbociclib] + COc1ccc(Cl)c(Nc2nc3ccccc3nc2NS(=O)(=O)c2cccc(NC(=O)C(C)(C)N)c2)c1 [XL147] (first compound 0.04 µM, partner dose 0.8 µM)",89.2,74.6,76.6,78.5,94.2,68.2,,,84.1,95.4,67.7,88.3,51.8,80.9,87.1,75.4
"CO[C@H]1C[C@@H]2CC[C@@H](C)[C@@](O)(O2)C(=O)C(=O)N2CCCC[C@H]2C(=O)O[C@H]([C@H](C)C[C@@H]2CC[C@@H](OCCO)[C@H](OC)C2)CC(=O)[C@H](C)/C=C(\C)[C@@H](O)[C@@H](OC)C(=O)[C@H](C)C[C@H](C)/C=C/C=C/C=C/1C [everolimus] + CC1(C)NC(=O)N(c2ccc([N+](=O)[O-])c(C(F)(F)F)c2)C1=O [nilutamide] (first compound 0.02 µM, partner dose 1 µM)",77.2,66.1,96.1,71.9,49.5,62.8,94.8,57.9,72.5,83.5,83,91.4,58.6,64.5,88.7,
"CC(=O)O[C@@]12CO[C@@H]1C[C@H](O)[C@@]1(C)C(=O)[C@H](O)C3=C(C)[C@@H](OC(=O)[C@H](O)[C@@H](NC(=O)OC(C)(C)C)c4ccccc4)C[C@@](O)([C@@H](OC(=O)c4ccccc4)[C@H]21)C3(C)C [Docetaxel] + CC(=O)c1c(C)c2cnc(Nc3ccc(N4CCNCC4)cn3)nc2n(C2CCCC2)c1=O [palbociclib] (first compound 0.0001 µM, partner dose 0.04 µM)",36.3,52.1,40.2,51.7,39.5,33.2,,,38.3,60.4,41.1,47.4,42,60.1,55.7,46.5
"CO[C@H]1C[C@@H]2CC[C@@H](C)[C@@](O)(O2)C(=O)C(=O)N2CCCC[C@H]2C(=O)O[C@H]([C@H](C)C[C@@H]2CC[C@@H](OCCO)[C@H](OC)C2)CC(=O)[C@H](C)/C=C(\C)[C@@H](O)[C@@H](OC)C(=O)[C@H](C)C[C@H](C)/C=C/C=C/C=C/1C [everolimus] + COc1cc2ncnc(Nc3ccc(Oc4ccccc4)cc3)c2cc1OC [SrcI1] (first compound 0.02 µM, partner dose 2 µM)",87.5,76,85.3,89.8,63.7,71.1,121,70.2,75.1,73.9,84.3,80.8,78,70,89.3,
"CC(=O)O[C@@]12CO[C@@H]1C[C@H](O)[C@@]1(C)C(=O)[C@H](O)C3=C(C)[C@@H](OC(=O)[C@H](O)[C@@H](NC(=O)OC(C)(C)C)c4ccccc4)C[C@@](O)([C@@H](OC(=O)c4ccccc4)[C@H]21)C3(C)C [Docetaxel] + CN1CCN(c2ccc3nc(-c4c(N)c5c(F)cccc5[nH]c4=O)[nH]c3c2)CC1 [Dovitinib] (first compound 0.0001 µM, partner dose 0.1 µM)",32.3,35.5,30.7,61,31.1,26.9,,,31.7,54.8,32,38.9,38.6,56.3,48.5,44.9
"CC(=O)O[C@@]12CO[C@@H]1C[C@H](O)[C@@]1(C)C(=O)[C@H](O)C3=C(C)[C@@H](OC(=O)[C@H](O)[C@@H](NC(=O)OC(C)(C)C)c4ccccc4)C[C@@](O)([C@@H](OC(=O)c4ccccc4)[C@H]21)C3(C)C [Docetaxel] + Nc1cccc2c1CN(C1CCC(=O)NC1=O)C2=O [lenalidomide] (first compound 0.0001 µM, partner dose 1 µM)",47.3,50.9,38.6,66.8,38.4,38.5,,,41.5,70.6,54.2,53.5,40.5,75.2,62.5,43.6
"CO[C@H]1C[C@@H]2CC[C@@H](C)[C@@](O)(O2)C(=O)C(=O)N2CCCC[C@H]2C(=O)O[C@H]([C@H](C)C[C@@H]2CC[C@@H](OCCO)[C@H](OC)C2)CC(=O)[C@H](C)/C=C(\C)[C@@H](O)[C@@H](OC)C(=O)[C@H](C)C[C@H](C)/C=C/C=C/C=C/1C [everolimus] + O=C(Nc1cccc(Cl)c1)Nc1ncc(CCNc2ncnc3ccsc23)s1 [SNS314] (first compound 0.02 µM, partner dose 0.0008 µM)",65.1,80,74.6,71,58.8,63,105,58.2,76,67.4,90.2,82.4,74.6,61.9,68.9,
"CO[C@H]1C[C@@H]2CC[C@@H](C)[C@@](O)(O2)C(=O)C(=O)N2CCCC[C@H]2C(=O)O[C@H]([C@H](C)C[C@@H]2CC[C@@H](OCCO)[C@H](OC)C2)CC(=O)[C@H](C)/C=C(\C)[C@@H](O)[C@@H](OC)C(=O)[C@H](C)C[C@H](C)/C=C/C=C/C=C/1C [everolimus] + C[C@@H]1CCN(C(=O)CC#N)C[C@@H]1N(C)c1ncnc2[nH]ccc12 [CP690550] (first compound 0.02 µM, partner dose 1 µM)",75.5,87,87.4,78.3,66.1,54.7,112,51.4,73,72.9,78,93.3,78,81.5,83.3,
"CC(=O)O[C@@]12CO[C@@H]1C[C@H](O)[C@@]1(C)C(=O)[C@H](O)C3=C(C)[C@@H](OC(=O)[C@H](O)[C@@H](NC(=O)OC(C)(C)C)c4ccccc4)C[C@@](O)([C@@H](OC(=O)c4ccccc4)[C@H]21)C3(C)C [Docetaxel] + OCc1c[nH]c2ccccc12 [Indole-3-carbinol] (first compound 0.0001 µM, partner dose 0.8 µM)",43.9,41.3,33,91.2,32.3,39.4,,,44.5,70.8,37.2,55,40.4,66.1,54.3,40.3
"CC(=O)O[C@@]12CO[C@@H]1C[C@H](O)[C@@]1(C)C(=O)[C@H](O)C3=C(C)[C@@H](OC(=O)[C@H](O)[C@@H](NC(=O)OC(C)(C)C)c4ccccc4)C[C@@](O)([C@@H](OC(=O)c4ccccc4)[C@H]21)C3(C)C [Docetaxel] + Nc1ncn([C@H]2C[C@H](O)[C@@H](CO)O2)c(=O)n1 [decitabine] (first compound 0.0001 µM, partner dose 0.1 µM)",44,45.6,30.8,67.7,69.8,50.6,,,42.5,63.9,39.1,61.1,48.1,68.5,61.7,41.4
"Nc1nc(F)nc2c1ncn2[C@@H]1O[C@H](CO)[C@@H](O)[C@@H]1O [fludarabine] + Nc1cccc2c1CN(C1CCC(=O)NC1=O)C2=O [lenalidomide] (first compound 0.2 µM, partner dose 1 µM)",95,24.6,101,96,67.3,12.3,,,89.5,97.9,93.2,101,18,116,37.1,3.17
"CC(=O)O[C@@]12CO[C@@H]1C[C@H](O)[C@@]1(C)C(=O)[C@H](O)C3=C(C)[C@@H](OC(=O)[C@H](O)[C@@H](NC(=O)OC(C)(C)C)c4ccccc4)C[C@@](O)([C@@H](OC(=O)c4ccccc4)[C@H]21)C3(C)C [Docetaxel] + C=C(c1ccc(C(=O)O)cc1)c1cc2c(cc1C)C(C)(C)CCC2(C)C [Bexarotene] (first compound 0.0001 µM, partner dose 2 µM)",43.2,36.6,30.6,50,44.2,33.5,,,42.9,55,27.1,47,36.6,87.6,55.3,39
"CC(=O)O[C@@]12CO[C@@H]1C[C@H](O)[C@@]1(C)C(=O)[C@H](O)C3=C(C)[C@@H](OC(=O)[C@H](O)[C@@H](NC(=O)OC(C)(C)C)c4ccccc4)C[C@@](O)([C@@H](OC(=O)c4ccccc4)[C@H]21)C3(C)C [Docetaxel] + Nc1ccn([C@@H]2O[C@H](CO)[C@@H](O)C2(F)F)c(=O)n1 [gemcitabine] (first compound 0.0001 µM, partner dose 0.0004 µM)",49.9,39.1,34.8,56.4,33.9,39.5,,,41.5,57.2,31,52.4,49.6,70.7,49.9,44.8
